# Results reported in PubChem BioAssay AID1508623 (National Center for Advancing Translational Sciences (NCATS), 2021).
# Screen size: about 48,000 compounds; about 450 (0.94%) were called active. The shares of active, inactive and inconclusive entries below differ from those in the screen. The call rests on the fitted dose curve; in most records, active means well fitted inhibition curve with a large enough effect; inconclusive means small, poorly fitted or top-dose-only effect; inactive means no such curve, though single readings can be large or run the other way. Where the call is inconclusive, the potency comes from a doubtful curve fit.
# Assay: Primary qHTS for Identification of Small Molecule Inhibitors of Huntingtin Promoter Activity; further: nearly all actives have a fitted effect of over 50% in size
# Conditions: HEK293 HTT promoter firefly luciferase reporter (activity 0% = vehicle and -100% = no light), 24 h; series mostly up to 57.5 µM
# In short: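 Firefly luciferase readout (Dual-Glo, 10 min RT) after 24 h, 37 °C compound exposure (final up to 57.5 uM) of HEK293 reporter cells cultured 24 h beforehand; PTC124 at 50 uM final as control inhibitor; activity scaled vehicle 0%, zero RLU -100%.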
# Potency means the concentration at half of the fitted maximal effect; tags describe the fitted curve by direction and shape.
row,SMILES,Potency
1,COc1ccc(Nc2ncnc3onc(-c4ccc(Cl)cc4)c23)cc1Cl,"inconclusive: 14.1 µM [inhibitor, partial curve, poor fit]"
2,CCCCn1c(SCC(=O)Nc2cccc(OC)c2)nc2ccsc2c1=O,"inconclusive: 35.5 µM [inhibitor, single point]"
3,COc1ccc(-n2cc(-c3ccccc3)c3c(NCc4cccc(Cl)c4)ncnc32)cc1,"inconclusive: 39.8 µM [inhibitor, single point]"
4,CCOC(=O)c1c(NC(=O)COc2cccc(C)c2C)sc2c1CCCCC2,"inconclusive: 7.94 µM [inhibitor, single point]"
5,Cc1ccc(CSc2oc(-c3ccco3)nc2S(=O)(=O)c2ccc(Cl)cc2)cc1,"inconclusive: 28.2 µM [inhibitor, single point]"
6,O=S(=O)(c1ccc(Br)cc1)c1nc(-c2ccco2)oc1SCc1ccccc1F,"inconclusive: 31.6 µM [inhibitor, partial curve, poor fit]"
7,COc1ccc(NC(=O)c2ccco2)cc1NC(=O)C(C)Oc1ccc(Cl)cc1Cl (configuration not stated),"inconclusive: 22.4 µM [inhibitor, single point]"
8,CC(C)(C)NCC(O)COc1ccccc1OCC1CCCO1 (configuration not stated),inactive
9,COc1ccc(CCNC(=O)CCc2c(C)nc3c(-c4ccc(F)cc4)c(C)nn3c2C)cc1OC,inactive
10,CC1=C(C(=O)OC2CCCCCC2)C(c2ccccc2Cl)CC(=O)N1 (configuration not stated),"inconclusive: 31.6 µM [inhibitor, partial curve, poor fit]"
11,Cc1ccc(-n2c(SCc3nc(-c4ccc(Cl)cc4)no3)nnc2-c2ccncc2)cc1,"inconclusive: 20 µM [inhibitor, single point]"
12,O=C1c2oc3ccccc3c(=O)c2C(c2cccc(O)c2)N1Cc1ccc(F)cc1 (configuration not stated),"inconclusive: 12.6 µM [inhibitor, partial curve, poor fit]"
13,CCOc1ccc(N(CC(=O)Nc2ccc3c(c2)OCO3)S(=O)(=O)c2ccccc2)cc1,"inconclusive: 35.5 µM [inhibitor, partial curve, poor fit]"
14,O=C(c1cc(-c2ccc(Cl)cc2)on1)N(Cc1ccc(F)cc1)Cc1ccco1,inactive
15,CCN(c1ccccc1)S(=O)(=O)c1nnc(NC(=O)C(C)Oc2ccccc2)s1 (configuration not stated),"inconclusive: 39.8 µM [inhibitor, single point]"
16,COc1ccc(N(C(=O)c2ccc(C)cc2)S(=O)(=O)c2ccc(Cl)cc2)cc1,"inconclusive: 25.1 µM [inhibitor, partial curve, poor fit]"
17,Cc1ccc(-n2cnc3cc(C(=O)NCc4ccccc4Cl)ccc32)c(C)c1,"inconclusive: 39.8 µM [inhibitor, partial curve, poor fit]"
